Measured values as given in PubChem BioAssay AID686979 (National Center for Advancing Translational Sciences (NCATS), 2013).
In all, about 420,000 compounds went through this assay and about 50,000 (12%) were called active. The inconclusive results got no clear call from the source; some entries with a clear call stand among them for comparison. The call rests on the fitted dose curve; in most records, active means well fitted inhibition curve with a large enough effect; inconclusive means small, poorly fitted or top-dose-only effect; inactive means flat fitted curve, though single readings scatter. No potency is given beside an inconclusive call; the fits are too rough.

Test: qHTS for Inhibitors of human tyrosyl-DNA phosphodiesterase 1 (TDP1): qHTS in cells in presence of CPT; further: nearly all actives have a fitted effect of over 55% in size
Settings: chicken DT40 Tdp1-/-;hTDP1 cells + 20 nM CPT, ATP luminescence, 48 h; activity change, negative = growth inhibition: at 46.2 µM (top of the series)
Summary of the method: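 Chicken DT40 Tdp1-/- cells stably complemented with human TDP1 were seeded at 400 cells/well in medium containing 20 nM camptothecin, exposed to pin-transferred compounds, and grown at 37 °C for at least 48 hr. Viability was read as ATP luminescence.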
On the % scale 0 is the no-effect control and ±100 the full control effect; potency means the concentration at half of the fitted maximal effect; tags describe the fitted curve by direction and shape.

SMILES | Potency | activity change, negative = growth inhibition
CCN1CCc2c(sc(NC(=O)C3CCCCC3)c2C(=O)OC)C1 | active: 25.9 µM | 
CC(=O)c1ccc(NC(=S)NC(C)c2ccc(Cl)cc2Cl)cc1 (configuration not stated) | inconclusive [inhibitor, single point] | 
COc1ccc(CCNC(=O)c2ccc3c(c2)c(C)c(C)n3Cc2ccc(F)cc2)c(OC)c1OC | active: 18.4 µM | 
CCC(=O)c1ccc(OCC(O)Cn2nc(C)c(C(C)=O)c2C)cc1 (configuration not stated) | inconclusive [inhibitor, single point] | 
Cc1ccc(Sc2oc(/C=N/n3cnnc3)cc2Br)cc1 | inconclusive [inhibitor, single point] | 
C=Cc1ccc(Cn2c(C)c(C(=O)NCc3ccccc3C(F)(F)F)sc2=O)cc1 | inconclusive [inhibitor, single point] | 
COc1ccc(C(=O)Nc2ccc3[nH]ccc3c2)cc1OC | inactive | 
Cc1cc(C(=O)COC(=O)c2cnccn2)c(C)n1-c1ccc(Br)cc1 | inactive | 
O=C(O)COc1ccc(/C=C2/SC(=S)N(Cc3ccccc3)C2=O)cc1 | inactive | 
O=S(=O)(NCc1ccc(F)cc1)c1ccc(-c2cnc(C3CC3)o2)cc1 | active: 18.4 µM | 
CCOC(=O)c1cnc(SCC(=O)Nc2sc(C)c(C)c2C#N)nc1N | inconclusive [inhibitor, single point] | 
COc1cccc(CNC(=O)[C@H](CC(C)C)NC(=O)N2CCn3c2nc2ccccc23)c1 | inconclusive [inhibitor, single point] | 
CC(=O)c1cccc(NC(=O)C2(C)Cc3c(-c4cccc(C(F)(F)F)c4)ccnc3O2)c1 (configuration not stated) | active: 16.4 µM | 
CN1CCc2nc(SCc3ccc(C(C)(C)C)cc3)c(C#N)cc2C1 | active: 23.1 µM | 
Cc1onc(-c2ccccc2Cl)c1C(=O)Nc1cccc2nsnc12 | inconclusive [inhibitor, full curve] | 
N#C/C(=C\c1ccccc1C(F)(F)F)C(=O)Nc1ccccc1 | inactive | 
COc1cc(OC)c2ccc(=O)oc2c1C(CCN1CCN(c2ccccc2)CC1)c1ccc(N(C)C)cc1 (configuration not stated) | active: 14.6 µM | 
CCOC(=O)/C(=C\c1cccnc1)C(=O)c1cc(C(C)=O)c(Nc2ccccc2)s1 | active: 2.06 µM | 
Cc1ccccc1CN1C(=O)/C(=C\c2ccc(C(=O)NCCN3CCOCC3)cc2)Sc2ccccc21 | inconclusive [inhibitor, single point] | 
O=c1c2c([nH]c3ccccc13)CCCCCC2 | active: 23.1 µM | 
O=C(Cn1cnc2ccccc2c1=O)c1ccc(Cl)cc1 | inactive | 
COc1ccc2[nH]c(=O)c(CN(c3ccccc3)S(=O)(=O)c3ccccc3)cc2c1 | inconclusive [inhibitor, partial curve, poor fit] | 
CCOC(=O)c1sc(NC(=O)c2cc(-c3ccccc3)nc3ccccc23)c(C#N)c1C | active: 7.31 µM | 
O=C(c1cccc(-n2cccc2)c1)N1CCN(S(=O)(=O)c2c(F)cccc2F)CC1 | inconclusive [inhibitor, partial curve] | 

SMILES | Potency | activity change, negative = growth inhibition
Cc1ccc(CNC(=O)c2cccn2-c2nnc(N3CCCCC3)s2)cc1 | active: 20.6 µM | 
COc1cc(-c2nc(Cn3nnc(C(=O)Nc4ccccc4)c3C)c(C)o2)cc(OC)c1OC | inconclusive [inhibitor, single point] | 
CCOC(=O)CCNC(=O)CCc1nnc(CCCc2ccccc2)o1 |  | inconclusive: -23.8% [inhibitor]
C=CCN1CC(c2nc3ccccc3n2Cc2cccc3ccccc23)CC1=O (configuration not stated) | inconclusive [inhibitor, single point] | 
CN(CC(=O)N1CCCC1)S(=O)(=O)c1cc(Cl)ccc1Cl | inactive | 
Cc1ccc(S(=O)(=O)N2CCCC2)s1 | inactive | 
Clc1ccc(Oc2cccc(/C=N/n3cnnc3)c2)cc1 | inconclusive [inhibitor, single point] | 
COC(=O)c1cc(CSC(=N)N)ccc1OCCC(C)C | inconclusive [inhibitor, single point] | 
O=C(Nc1cc(C(F)(F)F)ccc1Cl)C(Sc1ccccn1)c1ccccc1 (configuration not stated) | inconclusive [inhibitor, single point] | 
COc1ccc(/C=N/NC(=O)CCC(=O)Nc2ccc(Br)cc2)c(OC)c1 | inconclusive [inhibitor, single point] | 
CSc1ccccc1NC(=O)CN(C)C(=O)COc1cccc2cccnc12 | active: 5.17 µM | 
Fc1ccc(-n2cc(-c3ccccc3)c3c(NN4CCOCC4)ncnc32)cc1 | inconclusive [inhibitor, single point] | 
COc1cccc(CN(C)C(=O)c2ccc(COc3ccc(Cl)cc3)cc2)c1OC | inconclusive [inhibitor, single point] | 
CC1=C(/C=C/C(C)=C/C=C/C(C)=C/C(=O)O)C(C)(C)CCC1O (configuration not stated) | active: 25.9 µM | 
C=CCn1c(=O)c2ccccc2n2c(SCc3c(C(=O)OCC)oc4ccccc34)nnc12 | inconclusive [inhibitor, single point] | 
Cn1c(CSCc2ccc(Cl)cc2)n[nH]c1=S | inactive | 
O=C(c1cccn1-c1nnc(N2CCCC2)s1)N1CCN(c2ccccc2)CC1 | inconclusive [inhibitor, single point] | 
O=C(NNC(=O)C1CC=CCC1)c1ccccc1O (configuration not stated) | inconclusive [inhibitor, single point] | 
C(=N\NC(=Nc1ccccc1)c1ccccn1)/c1ccccn1 | active: 10.3 µM | 
COc1cc(-c2nnc3sc(-c4ccncc4)nn23)cc(OC)c1OC | inconclusive [inhibitor, single point] | 
CC12CC(NC(=O)N1c1cccc(C(=O)NCc3ccc4c(c3)OCO4)c1)c1cc(Cl)ccc1O2 (configuration not stated) | active: 18.4 µM | 
O=C(Nc1cc2c(cc1C(=O)c1ccccc1)OCCO2)c1ccc(Br)cc1 | inactive | 
CCN(CC)CCN(C(=O)c1ccc2c(c1)CCCC2)c1nc2ccc(F)cc2s1 | inconclusive [inhibitor, single point] | 
O=S(=O)(c1ccccc1)N1CCC2(CCN(Cc3ccncc3)CC2)CC1 | inconclusive [inhibitor, single point] | 

SMILES | Potency | activity change, negative = growth inhibition
Cc1cc(Nc2nnnn2-c2ccccc2)n(-c2ccccc2)n1 | inconclusive [inhibitor, single point] | 
Brc1cc2[nH]cnc2c2ccccc12 | inconclusive [inhibitor, full curve, poor fit] | 
Cc1csc(NC(=O)CCCSc2nc3ccccc3s2)n1 | inconclusive [inhibitor, single point] | 
CCCn1c2ccccc2c2nnc(SCc3[nH]c(=O)[nH]c3C(=O)CCCCC(=O)OCC)nc21 | inconclusive [inhibitor, partial curve, poor fit] | 
COc1ccc(OCCSc2nnc(C)n2-c2ccccc2)cc1 | active: 29.1 µM | 
COc1cc(O)c2c(c1)OC(c1ccc(O)cc1)CC2=O (configuration not stated) | inconclusive [inhibitor, single point] | 
CCOC(=O)N1CCN(C(=O)c2ccc3c(c2)N(CC)CCS3)CC1 | inconclusive [inhibitor, single point] | 
CC(=O)c1ccc(N2CCN(S(=O)(=O)c3ccc4c5c3CC(=O)N5CC(C)S4)CC2)cc1 (configuration not stated) | active: 20.6 µM | 
CCOC(=O)COc1ccc2c(C)c(CCN(CC)CC)c(=O)oc2c1Cl | inconclusive [inhibitor, single point] | 
CC1=C(C(=O)N(C(C)C)C(C)C)CC(CC(=O)NCCCCc2ccccc2)C(=O)N1CCC1=CCCCC1 (configuration not stated) | inconclusive [inhibitor, single point] | 
CC1CN(CCCCOc2ccc(C(C)C)cc2)CC(C)O1 (configuration not stated) | inconclusive [inhibitor, single point] | 
Cc1cc(C)n2nc(C(=O)N3CCCC(N4CCN(c5ccccc5C)CC4)C3)cc2n1 (configuration not stated) | inconclusive [inhibitor, single point] | 
CN1CCN(S(=O)(=O)c2cccc(C(=O)Oc3ccccc3Cl)c2)CC1 | inactive | 
COc1ccc(N2CC(C(=O)NC3CCSC3=O)CC2=O)cc1 (configuration not stated) | inactive | 
O=C1Nc2ccccc2/C1=C/c1cnc(-c2ccccc2)[nH]1 | inconclusive [inhibitor, single point] | 
Cc1ccccc1OCC(=O)Nc1ccc2c(c1)C(=O)N(CCC(=O)O)C2=O | inconclusive [inhibitor, full curve, poor fit] | 
CCN(CC)S(=O)(=O)c1ccc(N2CCOCC2)c(NC(=O)c2cc(=O)[nH]c3ccccc23)c1 | inactive | 
COc1ccc(-n2nc(C(=O)NCC(=O)N3CCN(c4ccccn4)CC3)c3ccccc3c2=O)cc1Cl | active: 11.6 µM | 
COc1cccc(-n2cc(C(=O)NCCc3ccc(C)cc3)c3ccccc3c2=O)c1 | active: 8.2 µM | 
Cc1cc(Cl)nc2c(C(C)C)cccc12 | inconclusive [inhibitor, single point] | 
CC(=O)N1c2ccc(S(=O)(=O)NCCC(=O)NCCc3cccc(C)c3)cc2CC1C (configuration not stated) | inconclusive [inhibitor, single point] | 
CCN(CC)c1cc(C)c2ccccc2n1 | inactive | 
COc1ccc(C2(CNC(=O)c3ccccc3)CCOCC2)cc1 | inactive | 
CC(C)OC(=O)CSc1nc(N)c(C#N)c(-c2cccs2)c1C#N | inconclusive [inhibitor, partial curve] | 
